Assay results published in ChEMBL document CHEMBL4888484, “Replenishing the malaria drug discovery pipeline: Screening and hit evaluation of the MMV Hit Generation Library 1 (HGL1) against asexual blood stage Plasmodium falciparum ,using a nano luciferase reporter read-out” (2022).
Values joined by “and” are separate entries in the source; they are usually repeats but may differ in a detail not shown here. Equal entries are not always repeated. Out of some 150,000 compounds screened, about 540 (0.36%) showed an effect of 50% or more. This is one part of the list.

System: Plasmodium falciparum
Experiment: Primary screen in NF54 nanoGlo assay, in single point, at 2uM, 72h; a lower Z score goes with more inhibition
Format: functional, Erythrocyte
Conditions: timepoint 72 hour

Structure (SMILES)	% Inhibition [%]	Z score	% Inhibition (2 µM)	Z score (2 µM)
CCc1ccc(CNC(=O)c2ccc(-c3c(-c4ccc(F)cc4)ncn3C3CCCCC3)o2)cc1	-13	2.04	–	–
O=C(Cc1c[nH]c2ccccc12)N1CCC[C@H]1c1nc2ccccc2s1	-12	2.22	–	–
O=C(Nc1c2c(nn1-c1ccccc1)CS(=O)(=O)C2)C1CCCC1	-12	2.04	–	–
O=C(Nc1ccnn1C1CCN(CC2CCC2)CC1)c1ccc2c(c1)OCO2	3	-0.43	–	–
Cc1ccc(S(=O)(=O)N2CCC(c3c(C)n(Cc4c(F)cccc4Cl)c4ccccc34)CC2)c(C)c1	-3	0.39	–	–
Cc1[nH]nc(CCC(=O)NCCc2nc(C3CC3)no2)c1C	7	-0.7	–	–
Cc1nc2c(C(=O)NCCCN3CCOCC3)cccc2[nH]1	-10	1.07	–	–
COCc1c(C(=O)NCC[C@H]2CCCN2C)cnn1-c1ncc2c(n1)-c1ccccc1CCC2	3	-0.4	–	–
CCCCc1nn(CC(=O)NCc2n[nH]c(C)n2)c(=O)n1CC	-17	1.65	–	–
N#CC1(c2nc(-c3ccnc(O)c3)no2)CCCCC1	-10	2.03	–	–
COCCN(C)C[C@H]1C[C@H](CO)CN(C(=O)c2cc3ccccc3s2)C1	-8	1.06	–	–
Cc1c(N2CCOCC2)c(C)n(Cc2cccc(C(F)(F)F)c2)c1C(=O)Nc1cccc(F)c1	-9	1.8	–	–
Cc1nnnn1CC(O)CN1CC(C)OC(C)C1 (stereo not drawn)	-4	0.51	–	–
COc1ccc(OC)c(CNC(=O)c2ccc(CN3C(=O)CCn4nc(-c5ccccc5)cc43)cc2)c1	8	-0.9	–	–
Cc1ccc(C(=O)NC[C@H]2CCCN2C2CCCCC2)nn1	-2	0.29	–	–
CCOc1ncccc1C(=O)NCc1cc(-c2cccs2)on1	3	-0.35	–	–
Cc1oc2ncnc(N3CCC[C@H](C(=O)Nc4cc(F)ccc4F)C3)c2c1C	-6	0.61	–	–
C[C@H]1CCc2nc3ncn(CC(=O)NC4CCCCCC4)c(=O)c3cc2C1	-10	1.51	–	–
COc1ccccc1-n1nc(CN(C(=O)C(C)(C)C)C2CC2)c2c1CCN(Cc1ccccc1F)C2	-3	0.62	–	–
CC(=O)N(CCc1noc(C(C)C)n1)[C@H]1CCN(C(=O)c2cccs2)C1	-11	0.97	–	–
CCOCCCN(CC(=O)N(Cc1ccccc1)Cc1ccc(C)o1)C(=O)CC(C)(C)C	-27	2.67	–	–

Structure (SMILES)	% Inhibition [%]	Z score	% Inhibition (2 µM)	Z score (2 µM)
Cc1ccc(CNC(=O)Cn2c(C)cc3nc4n(c(=O)c32)CCCCC4)cc1	-8	1.42	–	–
Cc1cc(COc2ccccc2)oc1C(=O)N[C@H]1CCCCNC1=O	-6	1.07	–	–
COc1ncccc1-c1nc(C)ccc1C#N	-8	1.46	–	–
O=C(Cn1nnc2ccccc21)N[C@H]1CCN(c2ccc3nncn3n2)C1	0	-0.04	–	–
O=C(O)c1cccnc1CN1CCN(c2ccc(Cl)c(Cl)c2)CC1	-13	1.39	–	–
OCC(C1CC1)C(NCc1cscn1)C1CC1 (stereo not drawn)	-7	0.76	–	–
CN(Cc1ccon1)c1nc(-c2ccco2)nc2c1CCNCC2	-17	1.74	–	–
COc1cccc(CCCN=C(N(C)C)N(C)C)c1	3	-0.29	–	–
CCn1cnnc1CNC(=O)c1ccc2c(c1)OCCO2	1	-0.11	–	–
CC(C)[C@@H]1CCCN1C(=O)c1cnn2cccnc12	-1	0.22	–	–
CN(C)C(=O)N1CCC(c2nnc(CN3CCCCCC3)n2C)CC1	-17	1.83	–	–
CN(Cc1oc2ccccc2c1Cl)[C@@H]1COC[C@H]1O	-6	0.61	–	–
Cc1ccc(F)cc1Cn1ccnc1[C@H]1CCOC(C)(C)C1	-5	0.68	–	–
Cc1nc(NCCNc2ccncc2C)c2c(C)noc2n1	2	-0.15	–	–
COc1ccccc1-c1c[nH]nc1-c1ccc(OCc2c(F)cccc2Cl)cc1O	4	-0.55	–	–
COc1cc(NC(=O)Cc2ccc(OC)c(OC)c2)ncn1	8	-1.51	–	–
Cc1ccccc1-c1oc(C)c(C)[n+]1[O-]	2	-0.28	–	–
O=C(O)C[C@@H]1CCN(C2CCCCC2)C[C@@H]1Cc1nc2cnccc2[nH]1	-3	0.6	–	–
Cc1ncc(-c2nc(-c3ccccc3)cs2)c(=O)n1CC(=O)N1CCc2ccccc2C1	-10	1.65	–	–
COc1ccc(Br)cc1CN[C@H]1CCCS(=O)(=O)C1	-10	1.5	–	–
Cc1cc(C(=O)N(Cc2cc(C3CC3)n(C)n2)C2CCCC2)c(C)o1	-8	1.44	–	–

Structure (SMILES)	% Inhibition [%]	Z score	% Inhibition (2 µM)	Z score (2 µM)
O=C(CCn1c(N2CCCC2)nc2ccccc2c1=O)NCc1ccc(F)cc1	-5	0.92	–	–
CC(C)C1CC(CC(=O)N2CCCC(C)C2CCO)CCO1 (stereo not drawn)	3	-0.46	–	–
CCn1c(C)cc(C(=O)N(C)C2(C#N)CCC2)c1C	-4	0.4	–	–
Cc1ccc(Oc2c(CN(C[C@H](O)COc3ccccc3)C3CC3)c(C)nn2-c2ccccc2)cc1	-4	0.49	–	–
CC(N[C@H](CO)Cc1ccc(O)cc1)c1ccccn1 (stereo partly drawn)	-4	0.68	–	–
CN(Cc1cn(C)nn1)[C@@H](C(=O)O)c1cccc(Cl)c1	-13	1.7	–	–
O=C(Nc1ccc(Cl)cc1C(O)c1ccccc1)c1cnn2c1N[C@@H](c1ccccc1)C[C@H]2C(F)(F)F (stereo partly drawn)	23	-3.79	–	–
CC1CCN(CC(=O)N2CC(CF)C2)CC1	-9	1.33	–	–
Cc1ccc(-n2nc(C(=O)O)c(C)c2Oc2ccc(NC(=O)C3CCC3)cc2S(=O)(=O)NC(C)(C)C)cc1	-5	0.74	–	–
CN1CCC[C@H](NC(=O)Nc2cccc(Oc3ccccc3)n2)C1=O	-11	1.38	–	–
CCc1ccc(NC(=O)c2ccc(Oc3ccnc(-c4ccc(F)cc4)n3)cc2)cc1	5	-0.59	–	–
CCn1cc(CN(C)C(=O)c2cccc(-c3ccc(OC)cc3C)c2)cn1	-9	1.09	–	–
O=S(=O)(c1ccc2c(c1)CCO2)N1CC2CC1CO2 (stereo not drawn)	-10	1.21	–	–
COc1ccccc1N1CCN(CCN2C(=O)CCC2=O)CC1	10	-1.82	–	–
CNC(=O)c1n[nH]c2c1[C@@H](c1cccc(C(=O)OC)n1)CC(=O)N2	-4	0.56	–	–
O=S(=O)(NCCn1ccn2nc(-c3ccco3)cc12)C1CC1	4	-0.57	–	–
N#Cc1ccc(N2CCC[C@H](n3cncn3)C2)nn1	-7	0.84	–	–
CCN(CC)[C@@H](CNCc1cccc(F)c1F)c1ccco1	3	-0.52	–	–
Cc1cccc(CCN2CCN(C(=O)CO)CC2)n1	-7	1.15	–	–
CCN(C(=O)[C@H]1CCS(=O)(=O)C1)C1CCCCC1	-4	0.55	–	–
CCOc1ccc(CN2CCO[C@@H](CC)C2)cn1	-10	0.92	–	–

Structure (SMILES)	% Inhibition [%]	Z score	% Inhibition (2 µM)	Z score (2 µM)
Cc1cc(NC(=O)Cc2c(C)noc2C)no1	-5	0.68	–	–
O=C(Nc1cccc(-c2ccco2)c1)N1CCC(C(=O)N2CCCC2)CC1	-18	1.79	–	–
COc1ccc(OC)c(CNC(=O)C2CCN(c3ccc(-c4ccccc4)nn3)CC2)c1	-19	1.84	–	–
CC1(C)C[C@@H](NC(=O)CNS(=O)(=O)c2ccccc2N)CCO1	3	-0.64	–	–
O=S1(=O)N=C(Nc2cc(C(F)(F)F)ccc2N2CCCCC2)c2ccccc21	-9	0.92	–	–
CC1(C(=O)NCCCn2nccc2C2CC2)CCCCC1	-6	1.11	–	–
O[C@@H]1COCCN(Cc2cccc3nonc23)C1	-10	1.22	–	–
CN(C(=O)CS(=O)(=O)N(C)C)C1CCCC1Cc1ccccc1 (stereo not drawn)	15	-1.87	–	–
c1ccc(CN2CCC(N[C@H]3CCc4ccccc4C3)CC2)cc1	2	-0.25	–	–
O=C(COC[C@H]1CCCO1)Nc1cnnn1-c1ccccc1	-7	0.96	–	–
CN(C)C(=O)N1CC[C@@]2(O)CCN(Cc3cccc(OC(F)F)c3)C[C@H]2C1	4	-0.66	–	–
Cc1ccc(NC(=O)Cn2c(C)nc3c(-c4ccccn4)nsc3c2=O)c(C)c1	33	-1.18	–	–
Cc1nnc(CN[C@@H](C)c2ccc(OC(F)(F)F)cc2)n1C	-13	1.06	–	–
O=C(Cc1c(F)cccc1Cl)N1C[C@H]2CCC[C@@H]1C2	2	-0.26	–	–
Cc1ccc(F)c(NC(=O)C(=O)NCc2csc(C(C)(C)C)n2)c1	3	-0.42	–	–
C1=C(CCNCc2ccc3c(c2)OCCO3)CCCC1	-13	1.15	–	–
CC(C)c1nccc(N[C@@H]2CCCC[C@H]2CO)n1	9	-1.15	–	–
CCN1CCc2c(c(Nc3ccccc3)[nH]c3nnc(N)c2-3)C1	–	–	-1% and -3%	0.13 and 0.37
COCCNC(=O)c1c(Cc2cccc(F)c2)n(CCCN2CCOCC2)c(C)cc1=O	1	-0.09	–	–
CCc1noc(-c2c(O)c3cc(F)ccc3n(C)c2=O)n1	-13	1.77	–	–
Fc1ccc(-c2csc(N3CCC[C@H](c4cn[nH]c4)C3)n2)cc1	36	-1.02	–	–
